Laboratory results as given in publication PMC4336329 (PLoS ONE, 2015).
Among all 310,000 compounds or so, about 2,200 (0.71%) showed an effect of 50% or more. The effect is printed as a negative number. The list shows a part of the results.

What follows are compounds tested against human ether-à-go-go-related gene (hERG) potassium channel (human, UniProt Q12809) (assay: primary screen, population patch clamp on CHO cells stably expressing hERG).
Chain of human ether-à-go-go-related gene (hERG) potassium channel (Q12809 whole entry, looked up): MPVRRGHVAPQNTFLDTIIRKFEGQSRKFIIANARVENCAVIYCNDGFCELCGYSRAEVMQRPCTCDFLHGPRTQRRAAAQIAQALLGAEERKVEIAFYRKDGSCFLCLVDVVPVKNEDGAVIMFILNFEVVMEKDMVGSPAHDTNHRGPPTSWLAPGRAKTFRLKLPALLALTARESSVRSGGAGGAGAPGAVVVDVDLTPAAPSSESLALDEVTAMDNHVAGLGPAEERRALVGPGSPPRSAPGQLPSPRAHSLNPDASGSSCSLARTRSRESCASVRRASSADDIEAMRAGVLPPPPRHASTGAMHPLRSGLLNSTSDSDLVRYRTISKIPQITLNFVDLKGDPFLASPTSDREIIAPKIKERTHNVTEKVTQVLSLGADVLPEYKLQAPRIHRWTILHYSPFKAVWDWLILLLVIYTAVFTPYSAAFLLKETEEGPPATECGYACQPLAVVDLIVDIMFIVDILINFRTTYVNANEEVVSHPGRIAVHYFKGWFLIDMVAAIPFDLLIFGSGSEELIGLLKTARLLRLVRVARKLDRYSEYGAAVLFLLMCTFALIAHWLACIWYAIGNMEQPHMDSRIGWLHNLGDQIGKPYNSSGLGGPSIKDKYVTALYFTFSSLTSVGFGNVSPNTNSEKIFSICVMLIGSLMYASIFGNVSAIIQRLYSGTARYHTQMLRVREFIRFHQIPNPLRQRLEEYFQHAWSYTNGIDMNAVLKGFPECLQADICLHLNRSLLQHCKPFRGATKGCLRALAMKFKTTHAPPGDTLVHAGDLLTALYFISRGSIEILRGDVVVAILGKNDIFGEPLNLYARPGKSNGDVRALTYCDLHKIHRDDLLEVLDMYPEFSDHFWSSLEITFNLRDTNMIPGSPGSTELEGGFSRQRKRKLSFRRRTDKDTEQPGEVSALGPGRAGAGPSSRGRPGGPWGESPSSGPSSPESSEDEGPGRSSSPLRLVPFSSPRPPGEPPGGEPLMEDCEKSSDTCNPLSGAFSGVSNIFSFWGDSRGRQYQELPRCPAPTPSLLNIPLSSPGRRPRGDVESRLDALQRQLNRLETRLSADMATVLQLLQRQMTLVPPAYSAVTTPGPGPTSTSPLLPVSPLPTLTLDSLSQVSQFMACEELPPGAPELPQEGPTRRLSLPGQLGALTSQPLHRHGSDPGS

SMILES	hERG current change (%, negative = inhibition) at 1uM
CC(=O)Nc1ccc(C(=O)NNC(=O)c2cccc(C)c2)cc1	9.86%
CC(=O)c1ccc(NC(=O)CSc2nnc(NC(=O)C3CC3)s2)cc1	3.49%
O=C(Nc1ccc(N2CCOCC2)nc1)c1cccs1	10.1%
CSc1nsc(SC)c1C(=O)N1CCN(S(=O)(=O)c2ccc(C)cc2)C1C (centres unmarked)	-0.355%
Cc1cccc(OCCNC(=O)c2cccc(Oc3ccc(C(F)(F)F)cc3[N+](=O)[O-])c2)c1	0.985%
Cc1onc(-c2c(F)cccc2Cl)c1C(=O)OCC(=O)NC(=O)NCC(C)C	32.5%
COn1c(-c2ccccc2)nc2ncccc21	13.5%
CCC(=O)N1CCc2cc(S(=O)(=O)CCC(=O)N3CCN(c4ccccc4F)CC3)ccc21	11.1%
Nn1c(Nc2ccccc2)nc2ccccc2c1=O	7.41%
Cc1cc(C(=O)NNC(=S)NC(=O)/C=C/c2ccccc2Cl)n[nH]1	0.163%
CCOc1c(C)cc(-c2[nH+]cccc2O)cc1C.[Cl-]	-4.92%
Cc1ccc(NC(=O)Nn2cnnc2)cc1Cl	8.39%
O=C(CCSc1nc(-c2ccco2)cc(C(F)(F)F)n1)NCCc1ccccc1	8.66%
Cc1ccc(Cn2cc(-c3ccccc3)nn2)cc1	13.1%
OC(CN1CCN(C(c2ccccc2)c2ccccc2)CC1)c1ccc(Br)cc1 (centres unmarked)	9.56%
COCCn1c(C)cc(O)c(C(=O)Nc2cccc(Cl)c2)c1=O	17.3%
CCOC(=O)C1CCCN(C2CC(=O)N(c3ccc(N4C(=O)CC(N5CCCC(C(=O)OCC)C5)C4=O)cc3)C2=O)C1 (centres unmarked)	16%
CS(=O)(=O)N1CCN(c2ccccc2NC(=O)c2ccc3ccccc3c2)CC1	-1.17%
COc1ccc(/C=C2\SC(=O)N(CCNC(=O)C3CC(=O)N(c4ccccc4)C3)C2=O)cc1 (centres unmarked)	-1.48%
Cl.O=C(COc1ccc(Cl)cc1)N(c1ccccc1Cl)C1CN2CCC1CC2 (centres unmarked)	-2.13%
CC(NC(=O)c1ccc(Br)cc1)C(=O)NC1=NCCS1 (centres unmarked)	12.7%
CSc1ccc(S(=O)(=O)N2CCC(C(=O)N3CCc4ccccc4C3)CC2)cc1	-0.505%

SMILES	hERG current change (%, negative = inhibition) at 1uM
Cc1cc(NC(=O)c2sc(Nc3ccc(F)cc3)nc2N)no1	3.66%
Cn1c(SCC(=O)Nc2ccccc2-c2ccccc2)nnc1-c1ccco1	-11.5%
COc1ccccc1CNC(=O)COC(=O)c1cccc(S(=O)(=O)N2CCCC2)c1	30.5%
CCCCN(C)CCNC(=S)Nc1ccc2nc(N3CCN(CC)CC3)cc(C)c2c1	5.42%
CC(=O)Nc1ccc(-c2cc(N)n(-c3ccccc3)n2)cc1	11.2%
CCCCCC(=O)Nc1cc(S(=O)(=O)N2CCOCC2)ccc1N1CCCC1	-2.6%
O=S(=O)(Cc1cc(Oc2ccccc2)nc(-c2ccccc2)n1)c1ccccc1	10.5%
CN1CCN(C(CNS(=O)(=O)c2cccs2)c2cccnc2)CC1 (centres unmarked)	1.07%
Cc1ccc(CNCc2ccccc2Cl)cc1.Cl	12.2%
CCCC(C)NC(=O)c1nc(-c2ccccc2)n(-c2ccccc2)n1 (centres unmarked)	8.43%
Cc1cccc(Cn2c(N3CCN(C)CC3)nc3c2c(=O)[nH]c(=O)n3C)c1	-5.22%
NNC(=O)c1cc(S(=O)(=O)N2CCOCC2)c[nH]1	2.97%
Cc1ccc(SCc2nc(-c3ccccc3)no2)cc1	10%
Cc1ccc(OCCC(=O)Nc2ccc(F)c(F)c2)cc1	1.8%
NS(=O)(=O)c1ccc(CNC(=O)Cc2ccccc2[N+](=O)[O-])cc1	12.4%
COc1ccc(C)cc1S(=O)(=O)N1CCCC(C(=O)NCc2ccccn2)C1 (centres unmarked)	2.53%
CCc1ccc(NC(=O)CSc2nc3ccccc3c(=O)n2CCCN2CCC(C)CC2)cc1	0.336%
COc1ccc(C)cc1NCC(=O)Nc1ccc(C(C)(C)C)cc1	19.4%
Cc1ccccc1C(=O)Nc1cccc(-c2ccc3nncn3n2)c1	-11.4%
CCOC(=O)CCc1c(C)c(C#N)c2nc3ccccc3n2c1-n1ccnc1C	-20.4%
Cc1ccc2c(c1)CCCN2C(=O)c1ccoc1C	0.956%
COC(CNC(=O)c1ccc2c(c1)nc(C)n2-c1cccc(C)c1)OC	6.3%
